PubChem BioAssay AID624170 (National Center for Advancing Translational Sciences (NCATS), 2012)
Values joined by “and” are separate entries in the source; they are usually repeats but may differ in a detail not shown here. Identical values can stand only once. Screen size: about 410,000 compounds; about 850 (0.21%) were called active. Inconclusive means that the source gave no clear call. Such entries were picked first, then a sample of the others. Calls follow the shape of the dose curve; as a rule, active = well fitted inhibition curve with a large enough effect; inconclusive = small, poorly fitted or top-dose-only effect, or another doubt; inactive = no such curve, though single readings can be large or run the other way. A potency beside an inconclusive call is a rough fit, not a confirmed value. The source holds several records for some structures; these can differ, active in one and inactive in another.

Biological target: Glutaminase kidney isoform, mitochondrial (Homo sapiens) (UniProt O94925)
Sequence of UniProt O94925 (O94925 whole entry, looked up, canonical isoform): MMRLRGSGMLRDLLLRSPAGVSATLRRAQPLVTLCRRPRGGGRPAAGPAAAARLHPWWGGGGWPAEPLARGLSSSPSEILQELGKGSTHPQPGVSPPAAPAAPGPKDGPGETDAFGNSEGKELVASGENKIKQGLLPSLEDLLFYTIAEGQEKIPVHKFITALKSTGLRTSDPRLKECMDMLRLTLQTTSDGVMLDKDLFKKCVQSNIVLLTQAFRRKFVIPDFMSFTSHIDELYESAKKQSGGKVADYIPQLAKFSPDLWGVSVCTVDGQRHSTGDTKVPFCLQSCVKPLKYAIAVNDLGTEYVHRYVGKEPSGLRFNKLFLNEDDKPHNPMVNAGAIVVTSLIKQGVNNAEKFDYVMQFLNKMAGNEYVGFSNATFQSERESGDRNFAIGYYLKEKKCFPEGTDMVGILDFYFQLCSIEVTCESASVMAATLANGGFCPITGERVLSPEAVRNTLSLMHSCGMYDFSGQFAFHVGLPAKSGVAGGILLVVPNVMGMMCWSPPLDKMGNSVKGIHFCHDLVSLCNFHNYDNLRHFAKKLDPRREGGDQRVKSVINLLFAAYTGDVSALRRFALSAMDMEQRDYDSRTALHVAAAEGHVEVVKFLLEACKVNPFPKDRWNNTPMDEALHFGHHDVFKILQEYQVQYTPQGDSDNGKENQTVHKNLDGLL
Assay: qHTS for Inhibitors of Glutaminase (GLS)
Conditions: GLS enzymatic activity, qHTS titration; series mostly up to 45.5 µM
From the text: Glutaminase (GLS) catalyzes the hydrolysis of glutamine into glutamate and ammonia. It plays a critical role in glutaminolysis, which is an important energy source for proliferating cells. It was shown that c-Myc, an oncogenic transcription factor known to regulate microRNAs and to stimulate cell proliferation, increases glutamine metabolism by stimulating the expression of GLS via direct suppression of miR23a and miR23b.
GLS is also thought to play a pathogenic role on HAD using a human HIV-1 infected macrophage system. […] GLS inhibition limits glutamate release and provides neuroprotection against HIV-1 infected macrophages.
The overall goal of this project is to identify small molecule inhibitors of GLS through quantitative high throughput screening (qHTS) of the MLSMR. A validated potent and selective inhibitor can be used as a tool molecule to further study the pharmacology of its target as well as explore its potential therapeutic application in cancer and inflammatory neurological disorders, such as HIV1-associated dementia (HAD) and multiple sclerosis.
NIH Chemical Genomics Center [NCGC]
NIH Molecular Libraries Probe Centers Network [MLPCN]
Assay Submitter (PI): Barbara S. Slusher, Johns Hopkins University
Three 3 uL of hKGA is dispensed into black well 1536-well plates in 45 mM KH2PO4 (pH 8.2), 0.02% Tween-20. Then 23 nL of compounds are added through pin tool transfer. To this, 1 uL of 1mM L-Glutamine and 1 uL of a solution of L-Glutamateoxidase, HRP, Amplex red are added. Plate is centrifuged for 25 sec before an initial fluorescence read is obtained on the ViewLux, after 30 min of RT incubation, the final read is taken on the ViewLux.
Potency is read from the fitted curve at half-maximal effect; tags tell the direction and shape of the fitted curve.

Row | SMILES | Potency
1 | Fc1ccc(-c2nn3c(C4COc5ccccc5O4)nnc3s2)cc1 (stereo unspecified) | inconclusive: 31.6 µM [inhibitor, single point]
2 | O=C(N/N=C\C=C\c1ccco1)c1cncc(Br)c1 | inactive
3 | O=C(NCc1ccccc1)c1ccc(NC(=O)C2CCCC2)cc1 | inactive
4 | COc1ccc(C2=CC3=C(Br)C(=O)C(C)(O)C(=O)C3=CO2)cc1 (stereo unspecified) | inactive
5 | CC(CCC(C)C(C)(C)C)[C@@H]1CC[C@H]2C3C[C@H](OS(O)(=S)=S)[C@H]4C[C@H](OS(O)(=S)=S)[C@@H](OS(O)(=S)=S)C[C@]4(C)[C@H]3CC[C@]12C (stereo partly specified) (tested in a mixture with another compound) | inconclusive: 28.2 µM [inhibitor, single point]
6 | O=C(/C=C/c1ccco1)Nc1cccc(C(=O)Nc2ccccc2C(=O)O)c1 | inconclusive: 35.5 µM [inhibitor, single point]
7 | CC(C)[C@H](NC(=O)c1ccco1)C(=O)OCc1cc(=O)n2c(n1)sc1ccccc12 | inconclusive: 17.8 µM [inhibitor, single point]
8 | Cc1n[nH]c(C)c1Sc1ccccc1N=Cc1cc(Cl)cc([N+](=O)[O-])c1O | inconclusive: 14.1 µM [inhibitor, partial curve, poor fit]
9 | CC1=NN(c2ccc([N+](=O)[O-])cc2)C(=O)C1 | inconclusive: 20 µM [inhibitor, single point]
10 | C#CCOCCOCCOCCNc1nc(N2CCN(C(=O)CCCCCCCCCCNC(=O)[C@@H](CCC(=O)O)n3cc(CCCCCN)nn3)CC2)nc(N2CCN(C(=O)CCCCCCCCCCNC(=O)[C@H]([C@@H](C)CC)n3cc(CCCCCN)nn3)CC2)n1 | inconclusive: 28.2 µM [inhibitor, single point]
11 | CCOc1ccc(CONS(=O)(=O)c2ccc(NC(C)=O)cc2)cc1Cl | inconclusive: 0.355 µM [inhibitor, full curve, poor fit]
12 | O=C(CSc1cccc2cccnc12)N/N=C/c1cccc(O)c1 | inactive
13 | CC(=O)NC1C(=O)N(CCN2CCOCC2)c2ccc(Br)cc21 (stereo unspecified) | inconclusive: 31.6 µM [inhibitor, single point]
14 | Oc1ccc(Cc2ccccc2)c2cccnc12 | inconclusive: 35.5 µM [inhibitor, single point]
15 | COc1ccc(/C=N/NC(=O)COc2ccc3ccccc3c2)c(C(=O)O)c1OC | inconclusive: 35.5 µM [inhibitor, single point]
16 | N#CC(C#N)=Cc1cnc(N2CCN(c3ccccc3)CC2)s1 | inactive
17 | COc1ccccc1-n1cn[nH]c1=S | inconclusive: 11.2 µM [inhibitor, partial curve, poor fit]
18 | N#Cc1sc2nc(-c3cccs3)cc(-c3ccc(Cl)cc3)c2c1N | inactive
19 | O=C(O)/C=C/C(=O)Nc1ccc2c(c1)C(=O)c1ccccc1C2=O | inconclusive: 35.5 µM [inhibitor, single point]
20 | Cc1ccc(Cn2c(=O)c3ccccc3n3c(SCC(=O)N4CCCCC4C)nnc23)cc1 (stereo unspecified) | inconclusive: 17.8 µM [inhibitor, single point]
21 | O=C(c1ccco1)N1CCCC(c2nc3c(nnn3Cc3ccc(Cl)cc3Cl)c(=O)[nH]2)C1 (stereo unspecified) | inconclusive: 35.5 µM [inhibitor, single point]
22 | CCOC(=O)[C@]12CCC=C1N(Cc1ccc3c(c1)OCO3)C(=O)[C@H](CC(=O)NCc1ccc(C)o1)C2 | inconclusive: 2.51 µM [inhibitor, partial curve, poor fit]

Row | SMILES | Potency
23 | Cc1ccc(C(=O)N/C(=C\c2ccco2)C(=O)NC2CCS(=O)(=O)C2)cc1 (stereo unspecified) | inconclusive: 35.5 µM [inhibitor, single point]
24 | N#Cc1ccc(N=c2ssnc2Cl)cc1 | inconclusive: 25.1 µM [inhibitor, single point] and inconclusive: 35.5 µM [inhibitor, single point]
25 | COCCNC(=O)c1ccc(-n2c(-c3ccccc3)cc3c2CCCCC3)cc1 | inconclusive: 0.891 µM [inhibitor, full curve, poor fit]
26 | CCCCc1ccc(NC(=O)C(=O)NCCN2CCN(C(=O)c3ccc([N+](=O)[O-])cc3)CC2)cc1 | inconclusive: 35.5 µM [inhibitor, single point]
27 | Cc1csc(Nc2ccc(Cl)cc2)n1 | inconclusive: 20 µM [inhibitor, single point]
28 | Cc1cc(C)c2nc3c(c(C(=O)O)c2c1)CCC3 | inconclusive: 20 µM [inhibitor, single point]
29 | O=C(N/N=C/C=C\c1ccccc1)c1cnccn1 | inactive
30 | CC(=O)NCCC(=O)Nc1cc(F)ccc1C | inconclusive: 25.1 µM [inhibitor, single point]
31 | Cc1nonc1C(=O)N/N=C/c1ccc(O)cc1 | inconclusive: 22.4 µM [inhibitor, single point]
32 | O=C(NCc1ccccc1Cl)c1cnc2sc(N3CCOCC3)nn2c1=O | inactive
33 | C=CCn1cc(/C=N/Nc2nc3ccccc3[nH]2)c2ccccc21 | inconclusive: 11.2 µM [inhibitor, partial curve]
34 | C/C(Cl)=C\Cn1c(Nc2cccc(C)c2)nc2c1c(=O)n(C)c(=O)n2C | inconclusive: 35.5 µM [inhibitor, partial curve, poor fit]
35 | Nc1c(Cl)ncnc1N/N=C/c1cccnc1 | inconclusive: 12.6 µM [inhibitor, partial curve]
36 | O=C(Nc1ccccc1Cl)OC1CCCCC1 | inactive
37 | Cc1cccc(C)c1NC(=O)C1CCCCN1C (stereo unspecified) | inconclusive: 35.5 µM [inhibitor, single point]
38 | CC(=O)C1=C(C)NC(SCC(=O)c2ccc(Cl)c(Cl)c2)=C(C#N)C1c1ccco1 (stereo unspecified) | inactive
39 | O=c1[nH]c2c(s1)C(c1ccco1)C1C3CCC(C3)C1S2 (stereo unspecified) | inactive
40 | CON(C)S(=O)(=O)c1cccc(C(=O)Oc2ccc(N(C)S(=O)(=O)c3ccccc3)cc2)c1 | inactive
41 | O=C(Nc1sc2c(c1C(=O)O)CCC2)c1ccccc1 | inconclusive: 17.8 µM [inhibitor, single point]
42 | O=C(c1ccco1)N(CCC(c1ccccc1)c1ccco1)Cc1ccco1 (stereo unspecified) | inconclusive: 22.4 µM [inhibitor, partial curve, poor fit]
43 | O=c1[nH]c(=O)n2c(c1-c1ccccc1)OC(CBr)C2 (stereo unspecified) | inactive
44 | CCOc1ccc(N2C(=O)CC(N3CCN(C(=O)CN4CCCC4)CC3)C2=O)cc1 (stereo unspecified) | inactive

Row | SMILES | Potency
45 | COCCNc1cc(N2CCN(C3CCCCC3)CC2)c2noc3c2c1C(=O)c1ccccc1-3 | inconclusive: 3.55 µM [inhibitor, single point]
46 | CCOC(=O)/C(C#N)=C/c1ccc(OCC(=O)Nc2ccc(OC)cc2)c(OC)c1 | inconclusive: 35.5 µM [inhibitor, single point]
47 | COc1ccc(O)c(/C=N/N2CCOCC2)c1 | inconclusive: 11.2 µM [inhibitor, partial curve, poor fit]
48 | O=C1C(Cl)=C(N2CCN(c3ccccc3[N+](=O)[O-])CC2)C(=O)c2ccccc21 | inactive
49 | CC(Oc1ccc(Cl)cc1Cl)c1nc(-c2ccc(NC(=O)c3ccccn3)cc2)no1 (stereo unspecified) | inactive
50 | CN1CCc2c(sc3c2C(=O)NC(c2cccs2)N3)C1 (stereo unspecified) | inconclusive: 15.8 µM [inhibitor, partial curve, poor fit]
51 | CC1CCCN(C(=O)C(C)Sc2nc(-c3ccccc3)cc(C(F)(F)F)n2)C1 (stereo unspecified) | inconclusive: 3.55 µM [inhibitor, single point]
52 | N#CCC(C(=O)c1cccnc1)c1ccccc1 (stereo unspecified) | inactive
53 | O=C(c1ccccc1)c1ccccc1N1C(=O)C=CC1=O | inconclusive: 35.5 µM [inhibitor, single point]
54 | CCN(CC)c1ccc(/C=C/c2cccc[n+]2C)c(OC)c1 | inconclusive: 35.5 µM [inhibitor, single point]
55 | CC1=C(C#N)C(c2ccc(O)cc2)C(C#N)=C(C)N1 | inconclusive: 35.5 µM [inhibitor, single point]
56 | CCOC(=O)/C(C#N)=C1\C(=O)N(Cc2ccccc2)c2ccccc21 | inconclusive: 10 µM [inhibitor, partial curve, poor fit]
57 | CO[C@@]1(NC(=O)Cc2cccs2)C(=O)N2C(C(=O)O)=C(COC(N)=O)CS[C@@H]21 | active: 11.2 µM
58 | Cn1c(Oc2ccccc2)nc2c1c(=O)n(Cc1ccc(Cl)cc1Cl)c(=O)n2C | active: 11.2 µM
59 | Cc1ccc(C(=O)OCC(=O)Nc2ccccc2Cl)c(O)c1 | inconclusive: 25.1 µM [inhibitor, single point]
60 | O=C(c1ccccc1Oc1ccccc1)N1CCN(c2ccccc2)CC1 | inactive
61 | CCCOc1ccc(C2NC(=S)NC(C)=C2C(=O)c2ccccc2)cc1OC (stereo unspecified) | inconclusive: 3.16 µM [inhibitor, full curve]
62 | O=c1[nH]c(Cc2ccc(Cl)cc2)nc2ccccc12 | inconclusive: 5.62 µM [inhibitor, single point]
63 | N#Cc1nc(COc2ccccc2F)oc1NCCCn1ccnc1 | inactive
64 | O=C(CC1N=C2c3ccccc3N=C(SCC(=O)Nc3ccc(F)cc3)N2C1=O)NCc1ccc2c(c1)OCO2 (stereo unspecified) | inconclusive: 14.1 µM [inhibitor, single point]
65 | CCOC(=O)C1(C)NC(c2cccs2)C2C(=O)N(c3ccc(OC)cc3)C(=O)C21 (stereo unspecified) | inconclusive: 35.5 µM [inhibitor, single point]
66 | COc1ccc(CCn2c(-c3ccc(C(C)(C)C)cc3)n[nH]c2=S)cc1OC | inconclusive: 15.8 µM [inhibitor, partial curve, poor fit]
